The other results are listed elsewhere or left out.
The sequences below were run against T1, OsWOX13 (Oryza sativa, UniProt Q5QMM3 1-267) (assay: protein-binding microarray (RPBM); PBS, 2% BSA, 51.3 ng/ul salmon testes DNA, 50 uM zinc acetate, 200 nM TF, 25 C, 1 h; high values mean tight binding). Conditions: protein: recombinant; tags: N-terminal polyhistidine and DsRed monomer fusion (pET32a); label: CyDye5-dUTP incorporated in the synthesized complementary strand; 3' TTTTT single-stranded linker to array surface; dsDNA, one strand shown.
T1 sequence: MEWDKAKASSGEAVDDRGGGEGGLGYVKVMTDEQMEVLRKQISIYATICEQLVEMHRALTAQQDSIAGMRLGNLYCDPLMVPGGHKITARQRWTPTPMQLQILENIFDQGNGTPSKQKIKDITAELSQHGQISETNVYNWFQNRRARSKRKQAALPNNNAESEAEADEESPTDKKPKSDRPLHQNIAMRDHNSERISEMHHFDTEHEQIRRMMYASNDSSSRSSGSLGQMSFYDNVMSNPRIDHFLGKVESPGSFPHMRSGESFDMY
Procedure, shortened: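 An Axon 4000B scanner gave the binding signal as per-feature fluorescence intensity in arbitrary units. This followed washing of a custom Agilent array that had been incubated for 1 h at 25 °C with 200 nM protein in PBS, 2% BSA, salmon testes DNA and 50 µM zinc acetate. The proteins were transcription factors fused at the N-terminus to polyhistidine and DsRed, expressed in E. coli BL21-CodonPlus and purified on Ni–NTA.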
For “AATAATAAATTTGATTGAATATATTACATAGCTAAAGTTTCGGAGTCACCTAGTGCAG”, the binding signal was 31800 fluorescence intensity (a.u.). For “TTTGGGGCTGAGAGATGAATGGATAATGGCCGCGGAGTTGCGGAGTCACCTAGTGCAG”, the binding signal was 3770 fluorescence intensity (a.u.). “GTTCTGACAAAATTTTAGTATCCAACCAAACAGCCCCAATCGGAGTCACCTAGTGCAG” was tested, and the binding signal was 4090 fluorescence intensity (a.u.). With “TTGTTGTTATTTAATAAATTAGGAGATCAAATATGTTATTCGGAGTCACCTAGTGCAG” the binding signal was 3300 fluorescence intensity (a.u.). For “TTAAAATTAAACTTTTGCAGTCTTTCTAATTTGCCTCCTCCGGAGTCACCTAGTGCAG”, the binding signal was 5220 fluorescence intensity (a.u.). With “TCTGATTAGTACTAGATATGAGTAACACGCAGATAACATGCGGAGTCACCTAGTGCAG” the binding signal was 44200 fluorescence intensity (a.u.). In the case of “CTGATGATCAAAATTGCAATCCTGAGTCCTGAACAATGTGCGGAGTCACCTAGTGCAG”, the binding signal is reported as 14600 fluorescence intensity (a.u.). With “TGTATGCATAATTTATAAATTTTCACTCTAACACCATGTCCGGAGTCACCTAGTGCAG” the binding signal was 9330 fluorescence intensity (a.u.). “AAACTACATTAATTTACATTGATTTTAGGAAATGAGGATCCGGAGTCACCTAGTGCAG” was tested, and the binding signal was 23700 fluorescence intensity (a.u.). “AGAGCTGCTAATTAATTATTTCACATGGATGCATACTTATCGGAGTCACCTAGTGCAG” was tested, and the binding signal was 20500 fluorescence intensity (a.u.). For “TAACAAACTATTCCTAATTAATAGATAAACTGCCATGCCGCGGAGTCACCTAGTGCAG”, the binding signal was 8390 fluorescence intensity (a.u.). In the case of “ACTTAATTTAAGTGGCTCCGACTTGACGTACGACTGATCTCGGAGTCACCTAGTGCAG”, the binding signal is reported as 13200 fluorescence intensity (a.u.). With “CCCAATTATCTGGATGAAACATGCATGCGCACAATCTAGACGGAGTCACCTAGTGCAG” the binding signal was 3360 fluorescence intensity (a.u.). “CTATCTTAATCTCATCATCAATTCCCTCGTGTAAACTCCCCGGAGTCACCTAGTGCAG” was tested, and the binding signal was 3170 fluorescence intensity (a.u.). In the case of “GACTGACGACAAAATTTGTTACAGATATCCATATCTTGATCGGAGTCACCTAGTGCAG”, the binding signal is reported as 5930 fluorescence intensity (a.u.). In the case of “TTCTATAAATCAATGACAAATTTATCTGGTTCAATCAAAGCGGAGTCACCTAGTGCAG”, the binding signal is reported as 14100 fluorescence intensity (a.u.). With “GGAAATATGTTAATTAAAATAATGCAACCCTAATCAGCAACGGAGTCACCTAGTGCAG” the binding signal was 10500 fluorescence intensity (a.u.). “GCCATGTAATTGTTACCCACCCGTGTCCATTTGCAATTGACGGAGTCACCTAGTGCAG” was tested, and the binding signal was 9450 fluorescence intensity (a.u.). In the case of “TACAATTAATTAGCTCGACTAATTAATAACCAAGTGATGGCGGAGTCACCTAGTGCAG”, the binding signal is reported as 37800 fluorescence intensity (a.u.). “TTATAATTGTAAATTTTACAAATTAGTCCTCACCTGTTCTCGGAGTCACCTAGTGCAG” was tested, and the binding signal was 53400 fluorescence intensity (a.u.). “AAATAATTTATAGGTAAAACTTTATATAAATGGTTTTAGTCGGAGTCACCTAGTGCAG” was tested, and the binding signal was 39400 fluorescence intensity (a.u.). “ACCTTCGACTATCAATAATCACCACTGCTCTAATCATTACCGGAGTCACCTAGTGCAG” was tested, and the binding signal was 3460 fluorescence intensity (a.u.). For “AGCAACTATGATGATATAATTACGCCCTTTGTTCTCCTTTCGGAGTCACCTAGTGCAG”, the binding signal was 4760 fluorescence intensity (a.u.).
